94 sequences from PMC10668032 can be followed below.

This is one part of the list. At the low end of the ranking the order means little.

In the assay the target is SIX1-Q177R homeodomain (UniProt Q15475). The experiment in a line: universal protein binding microarray. To be noted: Universal all-10-mer PBM (8x60K, AMADID 030236), 300 nM GST-tagged protein, Alexa Fluor 488 anti-GST; buffer, salt, pH and temperature not stated; high values mean tight binding; most listed sequences are background and not binding sites; double strand, one strand shown.
On to CTCTCGTA, for which the binding signal is -0.178 E-score.
Then GCAATGGA, with -0.183 E-score; and GAGCCTAC, with -0.108 E-score; and ATCTAGAC, with 0.0386 E-score.
As for ATTGGCGA, the figure is -0.148 E-score; as for GGGATTTA, 0.00874 E-score.
For CTCAAGCA, the binding signal was 0.0114 E-score.
Then CGGTGCGA, with 0.155 E-score; and AAGTGCTG, with -0.0592 E-score.
As for ACAAAGAG, the figure is 0.0486 E-score.
As for AAAACCAA, the figure is -0.0582 E-score; as for GTTGCTAA, -0.107 E-score; as for GGGCGTTA, 0.142 E-score.
For the sequence ATACACTG, the binding signal is 0.392 E-score.
Take GCTCAATA: the binding signal is -0.193 E-score.
As for AGGTGTCC, the figure is 0.464 E-score; as for AGGTTACA, 0.182 E-score.
As for GTCCTGTA, the figure is -0.234 E-score; as for CGTAACCA, -0.177 E-score; as for GTCCGGGA, -0.114 E-score.
Then AAATTACG, with -0.211 E-score.
ACACCAAT: the binding signal is 0.473 E-score.
As for AAACATAT, the figure is -0.264 E-score.
As for ACTCGGCT, the figure is -0.0747 E-score; as for ACAGCAGT, 0.0295 E-score.
Then AAGTAGCA, with -0.25 E-score; and GCAGCATA, with -0.0395 E-score; and ATGCACCA, with 0.165 E-score.
Take GGGTATAC: the binding signal stood at 0.262 E-score.
Then GGCGCGCA, with -0.0554 E-score.
As for ATGGCTGA, the figure is -0.113 E-score; as for ACCCTATA, 0.0941 E-score; as for CCACTACA, 0.298 E-score.
As for CTTTGACC, the figure is 0.0454 E-score.
As to TATGCACA, the binding signal was determined as 0.0646 E-score.
For CGCGCCCA, the binding signal came to 0.0147 E-score.
With GAGAGTAC, the binding signal came to 0.0453 E-score.
Then CCACCTCG, with -0.0443 E-score.
As for GCCGCTAA, the figure is -0.159 E-score.
CTCAGAGC: the binding signal was -0.156 E-score.
Then ATCCACAG, with 0.185 E-score; and ACTTAAGG, with -0.027 E-score.
Then AGAATACA, with 0.136 E-score; and CCACTCTC, with 0.0949 E-score; and GCGGTTAA, with -0.0416 E-score.
Then AATCGTGG, with -0.0906 E-score; and ACTTGCTG, with -0.113 E-score; and CTACTCTC, with 0.00492 E-score.
Regarding CTGCGTCC, the binding signal was -0.231 E-score.
On to AATTGCCT, for which the binding signal was -0.133 E-score.
Then AATTGGGC, with -0.101 E-score.
Then ACAAAGTG, with 0.102 E-score; and GACTAGGA, with -0.173 E-score.
On to CTCCCAGA, for which the binding signal came out at 0.00241 E-score.
For the sequence CATCTCCG, the binding signal was -0.0973 E-score.
AACCTATA: the binding signal worked out at 0.0658 E-score.
As for ACCTGTAG, the figure is -0.066 E-score; as for CGTGCTAG, 0.0709 E-score; as for CCCGTATC, 0.114 E-score.
Regarding AAAGGTCC, the binding signal was -0.0188 E-score.
As for CATGAAAC, the figure is 0.0479 E-score; as for AAATCGTC, -0.254 E-score.
As for TCAGTCGA, the figure is -0.0683 E-score; as for ACGTACCT, 0.00332 E-score.
Consider AGTTCCCG, for which the binding signal is -0.115 E-score.
Then AAAAAAGG, with -0.214 E-score; and ATGCACTG, with -0.218 E-score.
As for GGCTTTTA, the binding signal was -0.146 E-score.
As for ACTCTCTG, the figure is -0.036 E-score; as for AGTGCTGG, 0.0382 E-score; as for AAAATTCT, -0.121 E-score.
As for AGAAGCTG, the figure is -0.273 E-score; as for CTAAGAAA, -0.175 E-score.
As for CGTTAAGA, the binding signal is -0.139 E-score.
As for AGAGTTGA, the figure is -0.0399 E-score.
Then AAGGGTAA, with 0.136 E-score; and AAAACCTT, with -0.185 E-score.
Then GCCCTTTA, with -0.0576 E-score.
As for GACCAGCC, the binding signal is -0.302 E-score.
Regarding CTACGATA, the binding signal stood at 0.0119 E-score.
As for CTACGGTC, the figure is -0.198 E-score; as for CGGTCAGA, -0.288 E-score; as for GGTCCAGA, -0.204 E-score.
Then AGCGTAGC, with -0.192 E-score.
Then ACGGGACT, with -0.106 E-score; and AGTAAAAC, with 0.0273 E-score; and ATATAGAG, with -0.133 E-score.
On to ACGAGATA, for which the binding signal is -0.0837 E-score.
Then CCACGAGA, with -0.0445 E-score.
Regarding GAGGCAGC, the binding signal is -0.211 E-score.
Then AATTACAT, with -0.26 E-score.
Then GGACTCTA, with 0.0998 E-score; and GGAAGGTA, with 0.169 E-score.
Then CGGCGTTA, with 0.143 E-score.
